According to article PMC3062741 (Behavioural brain research, 2011):
Where “and” joins values, the source holds several entries; their conditions need not be identical. Identical values can stand only once. Like-named read-outs stand apart in the source and are kept apart here.

Key:
[1] = target: T1, dopamine (DA) transporter (DAT) (Rattus norvegicus, UniProt P23977); conditions: for effect on kinetic parameters of [3H]DA uptake: PFC or striatum
[2] = target: T1, dopamine (DA) transporter (DAT); conditions: for Bmax of [3H]WIN 35,428 binding, PFC / Bmax of [3H]WIN 35,428 binding, Striatum: 14-day drug-free, saline and MPD 10 mg/kg challenge
[3] = EC rats, repeated MPD 3 mg/kg 10 days
[4] = EC rats, repeated MPD 10 mg/kg 10 days
[5] = IC rats, repeated MPD 3 mg/kg 10 days
[6] = IC rats, repeated MPD 10 mg/kg 10 days
[7] = SC rats, repeated MPD 3 mg/kg 10 days
[8] = SC rats, repeated MPD 10 mg/kg 10 days

T1 sequence (P23977 whole entry): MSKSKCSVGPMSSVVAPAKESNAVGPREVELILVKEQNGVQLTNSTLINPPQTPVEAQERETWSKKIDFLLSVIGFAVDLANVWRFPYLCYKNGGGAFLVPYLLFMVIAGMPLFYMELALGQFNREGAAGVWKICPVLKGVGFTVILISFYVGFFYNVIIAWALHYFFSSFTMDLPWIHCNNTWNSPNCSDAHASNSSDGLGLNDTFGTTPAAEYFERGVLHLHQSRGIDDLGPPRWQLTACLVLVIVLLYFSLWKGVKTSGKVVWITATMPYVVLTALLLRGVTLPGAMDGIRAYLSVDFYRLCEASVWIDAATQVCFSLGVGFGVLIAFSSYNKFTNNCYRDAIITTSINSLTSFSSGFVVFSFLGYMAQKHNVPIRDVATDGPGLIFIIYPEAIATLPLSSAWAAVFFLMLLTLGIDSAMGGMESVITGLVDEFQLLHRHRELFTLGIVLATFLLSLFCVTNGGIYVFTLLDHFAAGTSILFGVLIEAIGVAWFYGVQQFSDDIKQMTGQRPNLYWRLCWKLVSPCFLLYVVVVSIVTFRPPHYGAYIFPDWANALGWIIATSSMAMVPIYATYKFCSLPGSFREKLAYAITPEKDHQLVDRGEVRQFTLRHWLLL

COC(=O)C(c1ccccc1)C1CCCCN1 (stereo not shown) [MPD, Methylphenidate]
effect on kinetic parameters of [3H]DA uptake ([1]; EC or IC rats, acute MPD 3 mg/kg, results not shown): did not significantly alter the kinetic parameters | decrease in Vmax of [3H]DA uptake compared to saline controls ([1]; EC rats, PFC, acute MPD 10 mg/kg s.c., 60 min after injection): 32 ± 3% and 32% | decrease in Vmax of [3H]DA uptake compared to saline control ([1]; EC rats, striatum, acute MPD 10 mg/kg s.c., 60 min after injection): 26 ± 1% | effect on kinetic parameters of [3H]DA uptake ([1]; IC rats, acute MPD 10 mg/kg): did not alter the kinetic parameters | effect on Bmax of [3H]WIN 35,428 binding ([2]; EC and IC rats, PFC or striatum, repeated MPD 3 mg/kg): did not alter Bmax values | decrease in Bmax of [3H]WIN 35,428 binding ([2]; EC rats, PFC, repeated MPD 10 mg/kg vs saline): 34 ± 4% | Bmax of [3H]WIN 35,428 binding, PFC [2, 3]: 0.72 pmol/mg protein | Bmax of [3H]WIN 35,428 binding, Striatum [2, 3]: 4.87 pmol/mg protein | Bmax of [3H]WIN 35,428 binding, PFC [2, 4]: 0.5 pmol/mg protein | Bmax of [3H]WIN 35,428 binding, Striatum [2, 4]: 4.27 pmol/mg protein | decrease in Bmax of [3H]WIN 35,428 binding ([2]; EC rats, striatum, repeated MPD 10 mg/kg vs saline): 27 ± 3% and 27% | decrease in Bmax of [3H]WIN 35,428 binding ([2]; IC rats, PFC, repeated MPD 10 mg/kg vs saline): 24 ± 3% and 24% | Bmax of [3H]WIN 35,428 binding, PFC [2, 5]: 0.78 pmol/mg protein | Bmax of [3H]WIN 35,428 binding, Striatum [2, 5]: 4.99 pmol/mg protein | Bmax of [3H]WIN 35,428 binding, PFC [2, 6]: 0.65 pmol/mg protein | Bmax of [3H]WIN 35,428 binding, Striatum [2, 6]: 4.59 pmol/mg protein | effect on Bmax of [3H]WIN 35,428 binding ([2]; IC rats, striatum, repeated MPD 10 mg/kg vs saline): no significant effect | effect on Bmax of [3H]WIN 35,428 binding ([2]; SC rats, PFC or striatum, repeated MPD 3 or 10 mg/kg vs saline): No significant differences | Bmax of [3H]WIN 35,428 binding, PFC [2, 7]: 0.52 pmol/mg protein | Bmax of [3H]WIN 35,428 binding, Striatum [2, 7]: 6.67 pmol/mg protein | Bmax of [3H]WIN 35,428 binding, PFC [2, 8]: 0.64 pmol/mg protein | Bmax of [3H]WIN 35,428 binding, Striatum [2, 8]: 6.67 pmol/mg protein
